Source: PubChem BioAssay AID493208 (National Center for Advancing Translational Sciences (NCATS), 2011)
In all, about 44,000 compounds went through this assay and about 340 (0.77%) were called active. Not shown: some 5% with an inconclusive outcome. Calls come from the whole dose curve; as a rule, active = well fitted inhibition curve with a large enough effect; inconclusive = small, poorly fitted or top-dose-only effect; inactive = flat fitted curve, though single readings scatter. The list shows a part of the results.

Experiment: Acumen qHTS Assay for Inhibitors of the mTORC1 Signaling Pathway in MEF (Tsc2-/-, p53-/-) Cells: Sytravon;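 note: plate controls were DMSO for no effect and rapamycin for full effect; nearly all actives have a fitted effect of over 50% in size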
Conditions: phospho-rpS6 immunofluorescence/PI, 24 h; series mostly up to 38.3 µM; activity change, negative = inhibition: at the top concentration
How it was run: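 Tsc2-/-, p53-/- MEFs (empty-vector stable line) in DMEM + 10% FBS were treated with compounds 24 h at 37 degree Celsius, fixed, and immunostained for phospho-rpS6 (Alexa-488) with propidium iodide counterstain. Laser-scanning cytometry gave % positive cells, normalized against 7.5 nM rapamycin and DMSO.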

SMILES	activity change, negative = inhibition
CCN(C(=O)Cc1c(C(=O)O)c(C)cn1C)c1cccc(Cl)c1	inactive: -0.659%
CCc1c(C)nc(SCc2nc(-c3ccccc3C)no2)[nH]c1=O	inactive: -8.32%
CCOc1ccc(S(=O)(=O)c2c(C(=O)c3ccc(C)c(C)c3)cnc3ccccc23)cc1	inactive: 0.795%
Cc1ccc(CNC(=O)CCc2nnc3n(C)c(=O)c4sccc4n23)cc1	inactive: -0.0529%
COc1cc(NC(=O)C(NS(=O)(=O)c2ccc3c(c2)CCCC(=O)N3)C(C)C)cc(OC)c1 (stereo unspecified)	inactive: 1.96%
CC(=O)Nc1ccc(Nc2c(CCC(C)C)c(C)c(C#N)c3nc4ccccc4n23)cc1	inactive: -15.4%
Cc1ccccc1C(=O)Nc1nnc(S(=O)(=O)N(C)c2ccc(Cl)cc2)s1	inactive: -16.1%
COC(=O)c1sccc1S(=O)(=O)N(CC(=O)Nc1ccc(C)c(F)c1)c1ccc(C)c(C)c1	inactive: -7.17%
Cc1ccccc1Cn1c(=O)n(CCc2ccccc2)c(=O)c2sc3ccccc3c21	inactive: -9.06%
CCc1ccc(C(=O)NC2=NC(c3cc(OC)ccc3OC)CC(=O)N2)cc1 (stereo unspecified)	inactive: 1.46%
COC(=O)c1ccc(-c2nc(-c3ccc(OC)c(OC)c3)no2)cc1	inactive: -9.15%
CC(=O)Nc1ccc(NC(=O)C(c2ccccc2)N2Cc3ccccc3C2=O)cc1 (stereo unspecified)	inactive: -7.82%
Cc1ccc(-c2nn(C)c(=O)c3ccccc23)cc1S(=O)(=O)NCCCN(C)C	inactive: -2.76%
O=C(Nc1ccc(-c2nc3cc(NC(=O)c4ccc(Cl)cc4)ccc3o2)cc1)c1ccc(Cl)cc1	inactive: 0.214%
COc1ccc(-c2cc(C(F)(F)F)n3nc(C(=O)Nc4sc5c(c4C(=O)OC(C)C)CCC(C)C5)cc3n2)cc1 (stereo unspecified)	inactive: -5.11%
CCCN(CCC)C(=O)C1CCCN(S(=O)(=O)c2cc(Br)cc3c2N(C(=O)CC)CC3)C1 (stereo unspecified)	inactive: -15.7%
CCc1ccc(-n2nc(CO)c(C(=O)NCc3cccnc3)n2)cc1	inactive: -6.93%
Cc1cc(C)cc(NC(=O)CCc2c(C)nc3c(c2C)c(=O)n(C)c(=O)n3C)c1	inactive: -18.4%
O=C(c1ccc2c(c1)N(Cc1ccc(Cl)cc1)C(=O)c1ccccc1S2(=O)=O)N1CCN(Cc2ccccc2)CC1	inactive: -0.62%
O=S(=O)(c1ccc(Br)cc1)c1nnn2c1nc(NCCc1ccccc1)c1sccc12	inactive: -5.42%
Cc1ccc(CCNC(=O)CCn2nc(-c3ccc(Cl)cc3)ccc2=O)cc1	inactive: 15.6%
COc1ccc(N2C(=O)CCSC23C(=O)N(Cc2ccc(F)cc2)c2ccccc23)cc1 (stereo unspecified)	inactive: -8.17%
Cc1ccc(-c2onc(C)c2C)cc1S(=O)(=O)Nc1cccc(Cl)c1C	inactive: 9.43%
Cc1nc2ccc(S(=O)(=O)NC(C(=O)N3CCN(c4cccc(Cl)c4)CC3)C(C)C)cc2s1 (stereo unspecified)	inactive: 2.64%

SMILES	activity change, negative = inhibition
Cc1nc(N2CCCC2)ncc1C(=O)NCc1ccc(F)cc1	inactive: 0%
Cc1cn2c(=O)c(S(=O)(=O)Nc3ccc(N4CCOCC4)cc3)c(C)nc2s1	inactive: -4.18%
COCCNC(=O)c1cnn(-c2cccc(C)c2)c1-n1cccc1	inactive: -11.1%
CC1CCN(S(=O)(=O)c2cc(C(=O)NCc3ccccc3)n(C)c2)CC1	inactive: -1.37%
COc1cc2ncc3c(-c4ccccc4)nn(CC(=O)NC4CCCCC4)c3c2cc1OC	inactive: -3.32%
COc1ccc(C2=C(C)C(N3CCN(c4ccc(OC)cc4)CC3)=NS2(=O)=O)cc1	inactive: -8.7%
CN(C(=O)c1ccc2c(c1)N(Cc1ccc(F)cc1)C(=O)c1ccccc1S2(=O)=O)C1CCCCC1	inactive: -2.57%
COc1ccc(C(=O)NNc2ncnc3c2cnn3-c2ccc(C)cc2C)cc1	inactive: -3.5%
CCC(CC)C(=O)Nc1nnc(S(=O)(=O)N2c3ccccc3CC2C)s1 (stereo unspecified)	inactive: 1.64%
Fc1cccc(-c2nnn3c2nc(NCc2ccc4c(c2)OCO4)c2ccccc23)c1	inactive: -9.85%
Cc1cc(N2CCC(C(=O)Nc3ccccc3Cl)CC2)n2nc(C)c(-c3ccc(Cl)cc3)c2n1	inactive: -0.431%
CCOC(=O)Cn1c(=O)oc2cc(S(=O)(=O)NC(C)c3ccccc3)ccc21 (stereo unspecified)	inactive: -6.58%
CCc1ccc(CN(C(=O)Nc2cccc(Cl)c2)c2ccccn2)cc1	inactive: -2.71%
COC(=O)c1nc2n(n1)C(c1cc(OC)ccc1OC)C=C(c1ccc(Br)cc1)N2 (stereo unspecified)	inactive: -17.1%
O=C(c1ccccc1F)N1c2nc(-c3ccco3)nn2C2(CCCCC2)[C@@H]2CCCC[C@@H]21	inactive: -12.3%
COc1ccccc1CNC(=O)c1ccc(-n2c(C)cc3c2CCCC3)cc1	inactive: -7.31%
COc1ccc(Cl)cc1NC(=O)c1cnc(N2CCCCC2)c2ccccc12	inactive: -9.48%
Cc1c(Cl)cccc1NS(=O)(=O)c1ccc(NS(=O)(=O)c2ccc3c(c2)OCCO3)cc1	inactive: 4.75%
CCOC(=O)c1ccccc1NC(=O)N1CC(C)Oc2ccc(C)cc21 (stereo unspecified)	inactive: 10.4%
CCOc1ccc(NC(=O)CCn2cccn2)cc1	inactive: 3.95%
CCCCOC(=O)/C(C#N)=C\c1ccc(-c2ccc(Cl)cc2)o1	inactive: -2.78%
CC(=O)c1ccc(C(=O)N(Cc2cccnc2)c2nc3c(C)c(C)ccc3s2)cc1	inactive: -1.72%
CCOC(=O)N1CCN(C(=O)c2ccc3c(c2)N(Cc2cccc(Cl)c2)C(=O)c2ccccc2S3=O)CC1 (stereo unspecified)	inactive: -0.215%
O=C1CN(C(=O)COc2ccc(Cl)cc2)C(c2ccc(F)cc2)c2cc(Cl)ccc2N1 (stereo unspecified)	inactive: 0.533%

SMILES	activity change, negative = inhibition
Cc1ccc(-c2nc3ccccn3c2Nc2ccc3c(c2)OCCO3)o1	inactive: -5.27%
O=C(Nc1ccc(Br)cc1)C1CCN(c2ncccn2)CC1	inactive: 0.8%
COc1cc(NC(=O)C(=O)Nc2ccc3nc4n(c(=O)c3c2)CCCCC4)cc(OC)c1OC	inactive: -3.12%
O=C(CN1C(=O)COc2ccc(S(=O)(=O)N3CCCCCC3)cc21)NCCc1ccccc1	inactive: -2.64%
Cc1ccc(NC(=O)N2CCN(C)c3ncccc32)cc1C	inactive: -4.2%
COCCNC(=O)c1c(NC(=O)c2cc(=O)c3cc(Cl)ccc3o2)sc2c1CCCC2	inactive: -2.16%
COC(=O)c1ccccc1NC(=O)N1CCC(n2c(C)nc3cccnc32)CC1	inactive: 26%
COc1cc(OC)c(N(C)C(=O)Cn2ncc3c(=O)oc4ccccc4c32)cc1Cl	inactive: 2.89%
Cc1ccc(CN2C(=O)N(c3ccccc3)C(=O)C2CC(=O)Nc2ccccc2)cc1 (stereo unspecified)	inactive: 0.584%
COc1ccccc1NC(=O)Cn1nnc(C(=O)Nc2ccccc2Br)c1N	inactive: -17.6%
CCc1cccc(C)c1NC(=O)Cn1cc2c(n1)CCCCC2	inactive: -13.6%
CC(=O)N1CCN(c2csc3ccc(Br)cc3c2=O)CC1	inactive: 0.44%
Cc1ccc(CNC(=O)c2cc(=O)c3cc(C)cc(C)c3o2)cc1	inactive: 0.235%
CCC(C)NC(=O)CSc1nc(-c2ccc(F)cc2)cc(C(F)(F)F)n1 (stereo unspecified)	inactive: 2.12%
COC(=O)c1ccccc1NC(=O)c1cnc2sc(N3CCOCC3)nn2c1=O	inactive: -0.774%
CCOc1ccc(NC(=O)c2cc3cc4cc(OC)ccc4nc3s2)cc1	inactive: 0.552%
Cc1cccc(NS(=O)(=O)c2ccc3c(c2)OCC(C(=O)N2CCCC2)O3)c1C (stereo unspecified)	inactive: -11.2%
CCc1nn(CCCC(=O)NCc2cc(Br)ccc2OC)c(=O)c2cc3occc3n12	inactive: 0.576%
COc1cccc(C(=O)Nc2cccc(C(=O)OCc3cc(=O)n4c5c(sc4n3)CCCC5)c2)c1	inactive: 0%
COc1ccc2cc(CNc3ccc(C)cc3)c(=O)n(CC(=O)Nc3cccc(C(F)(F)F)c3)c2c1	inactive: -22%
CCOC(=O)CSc1nc2c(sc3cccc(F)c32)c(=O)n1Cc1ccc(OC)cc1	inactive: 2.22%
O=c1c2cccnc2n(Cc2cccc(F)c2)c(=O)n1Cc1ccccc1Cl	inactive: -3.46%
Cc1ccc(-c2nnc(Nc3ccc(O)cc3)c3ccccc23)cc1S(=O)(=O)N1CCCCC1	inactive: 16.5%
COc1ccccc1-n1c(=O)c2c3c(sc2n(Cc2ccccc2F)c1=O)CN(C(C)=O)CC3	inactive: -3.26%

SMILES	activity change, negative = inhibition
CC(C)(C)C(=O)Nc1ccc2nc(SCC(=O)N3CCc4ccccc43)sc2c1	inactive: -5.22%
Cc1ccc(S(=O)(=O)c2cn(CC(=O)Nc3ccc4c(c3)OCO4)c3ccccc3c2=O)cc1C	inactive: -16.1%
O=C(NCCS(=O)(=O)N1CCN(c2ccc(F)cc2)CC1)C1CC(=O)N(c2ccccc2)C1 (stereo unspecified)	inactive: -0.178%
CC(C)c1cc(-c2nc(-c3ccc(Br)cc3)no2)n[nH]1	inactive: 9.7%
CCCN1CCN(CCNC(=O)Nc2ccccc2OCC)CC1	inactive: 2.04%
CCCN(Cc1cccs1)C(=O)Nc1ccc(Br)cc1F	inactive: -5.37%
Cc1cc2c(n1-c1ccc(C(=O)NCCc3ccccc3)cc1)CCC(C)C2 (stereo unspecified)	inactive: -0.497%
COc1ccc2[nH]c(=O)c(CN(C(=O)c3cccc(Cl)c3)c3cccc(C)c3)cc2c1	inactive: -5.09%
CCN1CCN(c2ncc3c(n2)CCN(Cc2ccc(OC)c(OC)c2)C3)CC1	inactive: 6.64%
COc1cccc(CNC(=O)CCCCCn2c(=O)[nH]c3cc(OC)c(OC)cc3c2=O)c1	inactive: 2.32%
CCN1C(=O)c2ccccc2S(=O)c2ccc(C(=O)N3CCN(c4ccccc4OC)CC3)cc21 (stereo unspecified)	inactive: -11.7%
CN(Cc1ccccc1)C(=O)c1cc(-c2cccc(Cl)c2)on1	inactive: -24.5%
COc1cc(C(CC(=O)Nc2cc(C)ccn2)N2Cc3ccccc3C2=O)cc(OC)c1OC (stereo unspecified)	inactive: -6.15%
CCOC(=O)c1c(C)[nH]c(C)c1S(=O)(=O)NCC(=O)NCc1ccccc1Cl	inactive: -1%
Cc1cc2c(n1-c1ccc(C(=O)NCc3ccc(OC(C)C)cc3)cc1)CCCC2	inactive: -4.75%
COc1ccccc1NC(=O)CSc1oc(-c2ccccc2)nc1S(=O)(=O)c1ccccc1	inactive: -3.16%
COc1ccc2c(c1)c1c(c(=O)n(-c3cccc(C)c3)c(=O)n1CC(=O)NCC1CCCO1)n2C (stereo unspecified)	inactive: -4.79%
COc1ccccc1CNC(=O)CCCn1c(=O)c2ccccc2n(Cc2ccccc2C#N)c1=O	inactive: -0.146%
Cc1cccc(Cc2c(C)nc3nc(SCc4ccccc4F)nn3c2C)c1	inactive: 0.892%
CCOc1ccccc1C(=O)Nc1ccc(S(=O)(=O)Nc2ncccn2)cc1	inactive: 5.58%
COc1ccc(Cl)cc1NC(=O)NCCc1c(C)nn(C)c1C	inactive: 9.68%
COc1ccc(OC)c(NC(=O)Cn2c(=O)n(Cc3nc(C)no3)c(=O)c3ccccc32)c1	inactive: -6.6%
CCc1cccc(C)c1NC(=O)c1ccc2c(c1)CCN2S(=O)(=O)CC	inactive: -0.761%
CC(=O)Nc1ccc(NC(=O)c2cc(-c3cccs3)on2)cc1	inactive: -1.45%
